Measured values as given in PubChem BioAssay AID2451 (National Center for Advancing Translational Sciences (NCATS), 2010).
Values joined by “and” are separate entries in the source; they are usually repeats but may differ in a detail not shown here. Equal values may be shown once. The campaign covered roughly 290,000 compounds. About 2,100 (0.72%) were called active. The inconclusive results got no clear call from the source; some entries with a clear call stand among them for comparison. Calls come from the whole dose curve; as a rule, active = well fitted inhibition curve with a large enough effect; inconclusive = small, poorly fitted or top-dose-only effect, or effect the other way; inactive = flat fitted curve, though single readings scatter. Where the call is inconclusive, the potency comes from a doubtful curve fit.

These compounds were tested against Fructose-bisphosphate aldolase (Giardia intestinalis (strain ATCC 50803 / WB clone C6)) (UniProt A8B2U2) (assay: qHTS Assay for Inhibitors of Fructose-1,6-bisphosphate Aldolase from Giardia Lamblia). Conditions: purified Giardia FBPA; series mostly up to 59.6 µM.
UniProt A8B2U2, sequence (A8B2U2 whole entry, looked up): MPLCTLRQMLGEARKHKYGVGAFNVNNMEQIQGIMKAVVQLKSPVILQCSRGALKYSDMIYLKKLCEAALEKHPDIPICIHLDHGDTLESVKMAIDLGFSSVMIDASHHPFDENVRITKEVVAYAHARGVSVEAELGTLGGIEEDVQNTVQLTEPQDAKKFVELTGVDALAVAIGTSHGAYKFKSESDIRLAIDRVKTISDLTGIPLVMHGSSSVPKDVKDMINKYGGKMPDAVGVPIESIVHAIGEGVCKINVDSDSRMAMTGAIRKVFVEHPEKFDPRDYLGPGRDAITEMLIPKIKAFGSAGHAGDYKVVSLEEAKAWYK
In short: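 Giardia FBPA (40 nM reagent) was preincubated 10 min at RT with compound (up to 57.5 uM final), then substrate plus GAPDH/TPI/NAD/arsenate coupling system with diaphorase/resazurin was added; resorufin fluorescence (525/598 nm) was read after 20 min.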
Note: nearly all actives have a fitted effect of over 55% in size.
Potency is the fitted concentration of half-maximal effect; tags give direction and shape of the fitted curve.

Row | SMILES | Potency
1 | O=C1/C(=C/c2ccco2)SC(=S)N1c1cccnc1 | active: 8.89 µM
2 | Oc1ccc(/C=N/Nc2ccc(Cl)nn2)cc1O | inconclusive: 25.1 µM [inhibitor, single point]
3 | CCN(CC)c1ccc(NC(=O)CNCc2ccccc2Cl)c(C)c1 | inconclusive: 11.2 µM [inhibitor, partial curve]
4 | COC(=O)/C(=N\Nc1ccc(Cl)cc1)Sc1nnc(-c2ccc(OC)cc2)n1C | inconclusive: 7.06 µM [inhibitor, full curve]
5 | CCOc1ccc(-c2nc(CSc3nnc(N)s3)cs2)cc1OC | inactive
6 | O=C(CC(=O)N/N=C/c1ccccc1)NCc1ccccc1 | inconclusive: 15.8 µM [inhibitor, partial curve]
7 | CCNN | inconclusive: 12.6 µM [inhibitor, partial curve]
8 | CCCCC(=O)OCc1nc(N)nc(Nc2ccccc2C)n1 | inactive
9 | C/C=C1/CN2CC[C@]34C(=C(C=O)[C@H]1C[C@@H]23)Nc1ccccc14 | inconclusive: 8.89 µM [inhibitor, partial curve]
10 | CCN(c1ccccc1)S(=O)(=O)c1ccc(C(=O)Nc2nnc(COC)o2)cc1 | inconclusive: 17.7 µM [inhibitor, partial curve]
11 | COc1ccc(OC)c(-n2c(-c3cnccn3)n[nH]c2=S)c1 | inconclusive: 15.8 µM [inhibitor, partial curve]
12 | COc1ccc2c(c1)CC/C(=C\C=C\c1ccccc1OC)C2=O | inconclusive: 15.8 µM [inhibitor, partial curve]
13 | CCCCOCC1CC(CC#CCN2CCCCC2)C(=O)O1 (centres undefined) | inconclusive: 19.9 µM [inhibitor, partial curve]
14 | S=c1[nH]c2cc(Cl)c3cccnc3c2o1 | active: 3.55 µM
15 | COc1cc(/C=C(/C(=O)O)c2ccc(-c3ccccc3)cc2)cc(OC)c1OC | inactive
16 | Cc1ccc(NC(=O)CN2C(=O)N/C(=C/c3ccc(C)o3)C2=O)cc1 | inconclusive: 22.3 µM [inhibitor, single point]
17 | Nc1c(N2CCCC2)c2ccccc2oc1=O | inconclusive: 14.1 µM [inhibitor, partial curve]
18 | CCc1ccc(Nc2n[n+](-c3ccccc3)c(-c3ccc(C(=O)O)cc3)s2)cc1 | inconclusive: 28.2 µM [inhibitor, partial curve]
19 | CC1(C)C(=O)CC[C@@]2(C)C1CC(O)[C@@]1(C)C3=CC(=O)OC(c4ccoc4)[C@]3(C)CCC21 (some centres undefined) | inactive
20 | CCOC(=O)C(C)n1cnc2c(nnn2Cc2ccc(Cl)cc2)c1=O (centres undefined) | inactive
21 | Cc1cccc(Nc2ncc3c(n2)CC(c2ccco2)CC3=O)c1 (centres undefined) | inactive
22 | O=C1C(SCCO)=C(SCCO)C(=O)c2ccccc21 | active: 446 nM and active: 889 nM
23 | Cc1ccc(S(=O)(=O)NNC(=S)NC(C)(C)C)cc1 | active: 11.2 µM
24 | CCSc1ncc(Cl)c(C(=O)Nc2ccccc2OC)n1 | inactive
25 | O=c1cc(-c2ccccc2)[nH]c2cc(Cl)ccc12 | inactive

Row | SMILES | Potency
26 | CCC(=O)Nc1cccc(NC(=S)NC(=O)c2cc3ccccc3o2)c1 | inactive
27 | COc1cc(/C=C/C(=O)CC(=O)/C=C/c2ccc(O)c(OC)c2)ccc1O | inconclusive: 17.7 µM [inhibitor, single point]
28 | COc1ccc(OC)c(CNCc2ccc3c(c2)OCO3)c1 | inconclusive: 15.8 µM [inhibitor, partial curve]
29 | COc1ccccc1NC(=O)Cn1c(CCC(=O)O)ccc1-c1ccc(C)cc1 | inconclusive: 17.7 µM [activator, single point]
30 | Cc1cc(C)c(OCCCCN2CCNCC2)c(C)c1 | inconclusive: 35.5 µM [inhibitor, single point]
31 | CCNc1ccc(Br)cc(C(=O)/C=C/c2ccc(Cl)cc2)c1=O | inconclusive: 6.29 µM [inhibitor, full curve]
32 | CC(C)CCNC(=O)NC(=O)CSc1nnc2ccccn12 | inactive
33 | Cc1cc2nc3c(=O)[nH]c(=O)nc-3n(CC(O)C(O)C(O)COP(=O)(O)O)c2cc1C (centres undefined) | inconclusive: 15.8 µM [inhibitor, partial curve]
34 | Cc1ccc(S(=O)(=O)CC2CSc3nc4ccccc4n32)cc1 (centres undefined) | inactive
35 | C=CC1=C(C)C2=NC1=CC1=NC(=CC3=NC(=CC4=NC(=C2)C(C)=C4CCC(=O)O)C(CCC(=O)O)=C3C)C(C=C)=C1C.[Zn] | inconclusive: 50 µM [inhibitor, single point]
36 | CCc1ccccc1NC(=O)N1CCCc2ccccc21 | inactive
37 | CCN1CCN(CCCNC(=O)c2cc3c(s2)-c2ccccc2OC3)CC1 | inactive
38 | Fc1ccccc1/C=N/Nc1nn[nH]n1 | inconclusive: 4.46 µM [inhibitor, full curve]
39 | COC12C(COC(N)=O)C3=C(C(=O)C(C)=C(N)C3=O)N1CC1C2N1C (centres undefined) | inconclusive: 17.7 µM [inhibitor, partial curve]
40 | Cc1ccc(C(=O)NC(=S)NNC(=O)CC#N)cc1 | inconclusive: 22.3 µM [inhibitor, partial curve]
41 | CCOC(=O)CC(NC(=O)C(Cc1ccc(N(CCCl)CCCl)cc1)NC(C)=O)C(=O)OCC (centres undefined) | inconclusive: 14.1 µM [inhibitor, partial curve]
42 | Cc1ccc(-c2nnnn2C2C/C(=N\NC(N)=S)C3OCC2O3)cc1 (centres undefined) | inactive
43 | Clc1ccc(NCc2ccsc2)cc1 | inconclusive: 28.2 µM [inhibitor, single point]
44 | CN(C)c1ccc(NC(=O)CSc2nnc(-c3ccco3)c(-c3ccco3)n2)cc1 | inconclusive: 28.2 µM [inhibitor, partial curve]
45 | COCCN(C(=S)Nc1c(C)cc(C)cc1C)C(C)c1cccnc1 (centres undefined) | inconclusive: 31.5 µM [inhibitor, single point]
46 | CCOc1ccc(/C(CCC(=O)O)=N/NC(=S)NC(C)C)cc1 | active: 15.8 µM
47 | COC(=O)CCCC1=CC2=CC(=O)C(C)(OC(=O)c3cccs3)C(=O)C2=CN1CC(C)C (centres undefined) | inconclusive: 316 nM [inhibitor, full curve] and inconclusive: 500 nM [inhibitor, full curve]
48 | Cc1cc(OCC(=O)N2CCN(c3ccccn3)CC2)cc(C)c1Br | inactive
49 | CCOc1ccc(CCNC(=O)C2CCN(S(=O)(=O)N3CCOCC3)CC2)cc1OCC | inconclusive: 3.54 µM [inhibitor, single point]
50 | C[Si](C)(C)n1ccnc1 | inconclusive: 22.4 µM [inhibitor, partial curve]

Row | SMILES | Potency
51 | O=C(N/N=C/c1ccccn1)c1cc(Br)ccc1O | inconclusive: 17.8 µM [inhibitor, single point]
52 | COc1ccc(OC)c(C2Nc3c(Cl)ccc(C(=O)O)c3C3C=CCC32)c1 (centres undefined) | inconclusive: 19.9 µM [activator, partial curve]
53 | CC1(C)CC2CC(C)(CN2Cc2cccc([N+](=O)[O-])c2)C1 (centres undefined) | inconclusive: 22.4 µM [inhibitor, partial curve]
54 | O=C(NCCc1ccc(Cl)cc1)Nc1ccc(F)cc1 | inactive
55 | O=C(/C=C/c1ccc(F)cc1)NC(=S)NNC(=O)c1cccnc1 | inconclusive: 15.8 µM [activator, partial curve]
56 | COCCn1c(SCC(=O)NCc2ccc(F)cc2)nc2ccccc21 | inactive
57 | COCCCn1c(-c2ccccc2Cl)n[nH]c1=S | inconclusive: 7.92 µM [inhibitor, partial curve]
58 | O=c1cc(C(F)(F)F)nc(SC/C=C/c2ccccc2)[nH]1 | inconclusive: 25.1 µM [inhibitor, partial curve]
59 | CN(C(=O)C1CCC(CNS(=O)(=O)c2cccc3cccnc23)CC1)C1CCCCC1 (centres undefined) | inactive
60 | COc1cccc(NC(=O)Nc2ccc3c(c2)OCO3)c1 | inconclusive: 14.1 µM [activator, partial curve]
61 | C(=C\c1nc(-c2cccnc2)no1)/c1ccccc1 | inconclusive: 44.6 µM [inhibitor, single point]
62 | Cc1cc(=O)c2c(O)c(O)ccc2o1 | active: 9.98 µM
63 | S=c1[nH]ncn1-c1ccccn1 | inconclusive: 6.29 µM [inhibitor, partial curve]
64 | Nc1cc(=O)[nH]c(SC/C=C/c2ccccc2)n1 | inactive
65 | COc1ccc(-c2cc(-c3c(O)c(OC)c4occc4c3OC)[nH]n2)cc1 | inactive
66 | C/C(CC(=O)Nc1ccc(Cl)c(Cl)c1)=N\NC(N)=S | active: 9.98 µM
67 | COc1cc(-c2noc(C3CCCN(C(=O)c4c(F)cccc4F)C3)n2)cc(OC)c1OC (centres undefined) | inactive
68 | CC(C)(C)c1ccc(C(=O)Nc2ccccc2NC(=O)c2ccco2)cc1 | inconclusive: 17.7 µM [inhibitor, single point]
69 | COc1ccc(CNCc2cc3c(cc2[N+](=O)[O-])OCO3)cc1 | active: 12.6 µM
70 | Cc1cccc(C(=O)NC(=S)NNC(=O)COc2c(C)cccc2C)c1 | inconclusive: 17.7 µM [activator, single point]
71 | CCOC(=O)N1CCC(N(CCN(C)C)C(=S)Nc2ccccc2OC)CC1 | inconclusive: 22.3 µM [inhibitor, single point]
72 | CC(=O)c1c(Nc2ccc3c(c2)OCCO3)oc(C)cc1=O | inconclusive: 19.9 µM [inhibitor, single point]
73 | O=C1N=C(N2CCN(c3ccccc3)CC2)S/C1=C\c1ccco1 | inconclusive: 28.1 µM [inhibitor, single point]
74 | Cc1ccc(N2CC(C(=O)NCCN3CCOCC3)CC2=O)cc1 (centres undefined) | inconclusive: 28.2 µM [inhibitor, partial curve]
